# Measured values as given in PubChem BioAssay (Tox21).
# Values joined by “and” are separate entries in the source; they are usually repeats but may differ in a detail not shown here. Identical values can stand only once. The inconclusive results got no clear call from the source; some entries with a clear call stand among them for comparison. For some assays here: Potencies beside an inconclusive call are fits to weak or partial responses and may not hold up. Active and inactive are the calls of the source. Unless noted, calls come from the whole dose curve; as a rule, active = well fitted curve in the direction sought with a large enough effect in the repeat runs; inconclusive = weak or mixed curves; inactive = no such curve, though single readings can be large; an effect the other way counts as inactive or inconclusive.
# Key:
# [1] = Human pregnane X receptor (PXR) small molecule agonists, qHTS cell viability counter screen (AID 1346977); note: nearly all actives have a fitted effect of over 50% in size; note: potency is the fitted concentration of half-maximal effect
# Outline: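 After a 5hr pre-incubation, PXR-Luc HepG2 cells received compounds plus positive control in DMSO and were kept 24hr at 37C. Cell viability was quantified by fluorescence from CellTiter-Fluor added for the final hour.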
# [2] = qHTS assay to identify small molecule antagonists of the TGF-beta/Smad signaling pathway (AID 1346924; active = well fitted inhibition curve with a large enough effect in the signal ratio in the repeat runs, not every such curve was filed as active; inconclusive = weak or mixed curves; the % refers to the signal ratio); settings: SBE-bla HEK293T, TGF-beta/Smad reporter, beta-lactamase ratio; activity, negative = inhibition: at 76.8 µM (top of the series) unless noted
# Outline: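 SBE-bla HEK 293T cells were plated overnight, then received compound in DMSO plus TGF-beta1 (added as a 0.25 ng/mL solution) and were incubated 5 h at 37 C. Beta-lactamase reporter activity was read after 2 h at room temperature with LiveBLAzer B/G FRET substrate (ex 405, em 460/530 nm).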
# [3] = biological target: Cytochrome P450 2D6 (Homo sapiens) (UniProt P10635); test: Cytochrome P450 Family 2 Subfamily D Member 6 (CYP2D6) small molecule antagonists: luciferase reporter qHTS assay (AID 1671196); note: % is set by controls: 0 for no effect and ±100 for the full control effect; nearly all actives have a fitted effect of over 50% in size
# Sequence of UniProt P10635 (P10635 whole entry, looked up): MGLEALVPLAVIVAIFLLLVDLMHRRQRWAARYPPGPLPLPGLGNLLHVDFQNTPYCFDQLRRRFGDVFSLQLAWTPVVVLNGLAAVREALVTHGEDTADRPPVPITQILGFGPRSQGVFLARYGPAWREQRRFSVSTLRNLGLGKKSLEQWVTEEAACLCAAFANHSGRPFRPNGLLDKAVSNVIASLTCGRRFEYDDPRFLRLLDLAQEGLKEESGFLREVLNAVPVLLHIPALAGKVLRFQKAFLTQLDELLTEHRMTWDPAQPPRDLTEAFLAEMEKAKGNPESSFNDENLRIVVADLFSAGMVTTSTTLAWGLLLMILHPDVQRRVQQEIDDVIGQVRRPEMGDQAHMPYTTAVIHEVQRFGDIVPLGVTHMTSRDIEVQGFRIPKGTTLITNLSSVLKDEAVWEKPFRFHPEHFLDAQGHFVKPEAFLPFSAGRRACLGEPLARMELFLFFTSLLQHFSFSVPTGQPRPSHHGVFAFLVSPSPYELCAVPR
# Outline: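 Cell-free P450-Glo system: CYP2D6 with proluciferin substrate was pre-incubated with compound for 10 min, then reacted with NADPH regeneration for 1 h at room temperature. Luciferin product was detected after 20 min, and data were reported as relative luminescence units.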
# [4] = biological target: Nuclear receptor subfamily 1 group I member 2 (Homo sapiens) (UniProt O75469); test: Human pregnane X receptor (PXR) small molecule agonists, qHTS assay (AID 1346982); note: potency is the fitted concentration of half-maximal effect; nearly all actives have a fitted effect of over 35% in size
# Sequence of UniProt O75469 (O75469 whole entry, looked up): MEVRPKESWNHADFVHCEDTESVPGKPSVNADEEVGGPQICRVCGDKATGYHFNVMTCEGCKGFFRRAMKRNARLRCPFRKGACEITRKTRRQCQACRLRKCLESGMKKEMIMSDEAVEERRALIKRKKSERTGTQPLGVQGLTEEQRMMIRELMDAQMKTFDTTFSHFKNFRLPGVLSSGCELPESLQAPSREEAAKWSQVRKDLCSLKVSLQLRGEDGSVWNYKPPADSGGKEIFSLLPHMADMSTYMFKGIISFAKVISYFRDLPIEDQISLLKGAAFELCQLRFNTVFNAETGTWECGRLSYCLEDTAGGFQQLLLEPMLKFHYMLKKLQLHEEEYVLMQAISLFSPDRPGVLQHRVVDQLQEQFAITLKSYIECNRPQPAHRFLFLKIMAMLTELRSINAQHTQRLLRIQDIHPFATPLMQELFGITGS
# Outline: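 PXR-Luc HepG2 reporter cells (CYP3A4-driven luciferase) in 5% charcoal-stripped FBS medium, plated 5 h before compound addition, then treated 24 h at 37C. Luciferase read by ONE-Glo luminescence after 30 min at room temperature.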
# [5] = biological target: Acetylcholinesterase (Homo sapiens) (UniProt P22303); test: Acetylcholinesterase (AChE) small molecule antagonists: enzyme-based qHTS assay (AID 1347397; calls by dose curve; note: potency is the fitted concentration of half-maximal effect; nearly all actives have a fitted effect of over 55% in size); settings: Potency: AChE enzyme activity inhibition
# Sequence of UniProt P22303 (P22303 whole entry, looked up): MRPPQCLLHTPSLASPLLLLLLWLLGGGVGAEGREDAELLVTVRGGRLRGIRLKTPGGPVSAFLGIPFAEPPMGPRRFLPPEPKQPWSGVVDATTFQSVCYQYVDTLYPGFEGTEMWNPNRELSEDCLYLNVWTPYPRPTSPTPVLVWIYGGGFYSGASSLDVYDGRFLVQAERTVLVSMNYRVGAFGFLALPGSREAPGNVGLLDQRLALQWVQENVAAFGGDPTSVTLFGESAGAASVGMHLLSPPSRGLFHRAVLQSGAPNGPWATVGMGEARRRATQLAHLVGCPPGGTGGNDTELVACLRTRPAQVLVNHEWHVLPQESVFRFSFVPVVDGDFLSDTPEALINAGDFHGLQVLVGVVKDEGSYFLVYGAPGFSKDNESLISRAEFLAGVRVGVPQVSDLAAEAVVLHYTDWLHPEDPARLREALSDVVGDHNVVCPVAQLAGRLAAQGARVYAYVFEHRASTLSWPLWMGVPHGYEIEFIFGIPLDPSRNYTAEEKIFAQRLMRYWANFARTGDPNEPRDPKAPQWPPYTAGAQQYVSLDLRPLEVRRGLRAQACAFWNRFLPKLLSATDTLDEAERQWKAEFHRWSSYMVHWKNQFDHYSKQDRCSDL
# Outline: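 Recombinant human AChE, dispensed at 50 mU/mL, was preincubated with Tox21 10K compounds or DMSO vehicle for 30 min at room temperature. DTNB plus acetylthiocholine was then added, and thiocholine was measured colorimetrically after a further 10 min.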
# [6] = biological target: Acetylcholinesterase (Homo sapiens) (UniProt P22303); test: Acetylcholinesterase (AChE) small molecule antagonists: colormetric cell-based qHTS assay (AID 1347395; calls by dose curve; note: potency is the fitted concentration of half-maximal effect; nearly all actives have a fitted effect of over 30% in size)
# Outline: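 In this cell-based qHTS, attached SH-SY5Y cells were treated with test chemicals for 30 min, after which acetylthiocholine hydrolysis was followed by DTNB colour development over 90 min at 37 C.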
# [7] = Caspase-3/7 induction in HepG2 cells by small molecules, qHTS assay (AID 1346978); note: potency is the fitted concentration of half-maximal effect; nearly all actives have a fitted effect of over 15% in size
# Outline: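 Wild-type HepG2 cells (2,000/well) were settled 5 h at 37 C, 5% CO2, then exposed to compounds in DMSO for 17 h. Caspase-3/7 activity was read by luminescence 30 min after adding Caspase-Glo 3/7 reagent at room temperature.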
# [8] = Caspase-3/7 induction in HepG2 cells by small molecules, qHTS cell viability counter screen (AID 1346981); note: potency is the fitted concentration of half-maximal effect; nearly all actives have a fitted effect of over 30% in size
# Outline: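 Wild-type HepG2 cells, 2,000/well, settled 5 hr at 37 C, 5% CO2 before compound addition. Viability read by CellTiter-Fluor fluorescence, reagent added after 16 hr compound exposure, then 1 hr at 37C, in the same wells as the caspase read.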
# [9] = biological target: Acetylcholinesterase (Homo sapiens) (UniProt P22303); test: Acetylcholinesterase (AChE) small molecule antagonists: fluorescence cell-based qHTS assay (AID 1347398; calls by dose curve; note: potency is the fitted concentration of half-maximal effect; nearly all actives have a fitted effect of over 50% in size); settings: Potency: AChE activity
# Outline: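 Human SH-SY5Y cells were plated overnight at 37 C, exposed to compound for 30 min at 37 C, 5% CO2, then given acetylthiocholine plus Thiolite Green for 40 min at room temperature; thiocholine fluorescence (Ex/Em 490/520 nm) reports endogenous AChE activity.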
# [10] = biological target: Cytochrome P450 2C19 (Homo sapiens) (UniProt P33261); test: Cytochrome P450 Family 2 Subfamily C Member 19 (CYP2C19) small molecule antagonists: luciferase reporter qHTS assay (AID 1671197); note: nearly all actives have a fitted effect of over 65% in size; note: potency is the fitted concentration of half-maximal effect
# Sequence of UniProt P33261 (P33261 whole entry, looked up): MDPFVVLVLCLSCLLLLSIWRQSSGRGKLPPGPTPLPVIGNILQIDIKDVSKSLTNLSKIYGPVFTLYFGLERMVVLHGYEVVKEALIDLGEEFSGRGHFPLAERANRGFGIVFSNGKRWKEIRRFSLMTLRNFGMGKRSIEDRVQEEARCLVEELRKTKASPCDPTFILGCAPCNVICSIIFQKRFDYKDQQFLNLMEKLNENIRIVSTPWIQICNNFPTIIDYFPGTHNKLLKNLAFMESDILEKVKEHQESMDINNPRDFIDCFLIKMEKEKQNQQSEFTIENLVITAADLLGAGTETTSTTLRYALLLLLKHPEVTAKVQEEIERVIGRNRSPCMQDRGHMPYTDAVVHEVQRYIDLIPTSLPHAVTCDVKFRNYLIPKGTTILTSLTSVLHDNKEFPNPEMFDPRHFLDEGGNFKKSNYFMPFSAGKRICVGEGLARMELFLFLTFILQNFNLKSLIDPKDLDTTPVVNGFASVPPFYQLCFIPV
# Outline: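 P450-Glo CYP2C19 screening system; proluciferin substrate; DMSO compound stocks; 10 min RT preincubation; NADPH regeneration, 1 h at 37C; luciferin detection reagent, 20 min RT; luminescence as RLU.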
# Tags give direction and shape of the fitted curve.
compound,measurement,setting,value
CCCCn1cc[n+](C)c1,Potency,[1],inactive
O=CCCl,"activity, negative = inhibition",[2],inconclusive: 12.8%
same,Potency,[3],inactive
Clc1ccc(C(OCCN2CCCCC2)c2ccccc2)cc1 (stereo unspecified),Potency,[1],inconclusive: 13.3 µM [cytotoxic]
CSc1ccc(C(=O)C(C)(C)N2CCOCC2)cc1,"activity, negative = inhibition",[2],inconclusive: -11.5%
same,Potency,[4],"inconclusive: 27.3 µM [activator, partial curve]"
O=P1(N(CCCl)CCCl)NCCCO1 (stereo unspecified),Potency,[1],"inconclusive: 21.1 µM [rising, partial curve]"
Cc1ccc(N)c(C)c1,Potency,[1],inactive
II,"activity, negative = inhibition",[2],inconclusive: -19.5%
same,Potency,[5],"inconclusive: 89.4 µM [falling, single point]"
CC(C)CC(C)N (stereo unspecified),Potency,[1],inactive
CNC(=O)Oc1cc(C)c(SC)c(C)c1,"activity, negative = inhibition",[2],inconclusive: -9.68%
same,Potency,[6],active: 3.17 µM
COP(N)(=O)SC (stereo unspecified),Potency,[1],inactive
Nc1ccc([N+](=O)[O-])cc1N,Potency,[1],active: 22.4 µM and active: 61.1 µM
same,Potency,[7],"inconclusive: 68.5 µM [activator, single point]"
same,Potency,[8],active: 54.4 µM and active: 54.5 µM
same,Potency,[4],"inconclusive: 24.3 µM [activator, single point]"
same,Potency,[9],"inconclusive: 79.6 µM [inhibitor, partial curve, poor fit]"
same,Potency,[10],"inconclusive: 89.4 µM [inhibitor, single point]"
CC1Sc2c(C(=O)O)c(=O)c3cc(F)c(N4CCNCC4)cc3n21 (stereo unspecified),"activity, negative = inhibition",[2],inconclusive: -21.7% [at 35.3 µM]
same,Potency,[3],inactive
COC(C)(C)C,Potency,[1],inactive
CC(=O)NC1CCSC1=O (stereo unspecified),Potency,[1],inactive
C=CC(=O)OCC,"activity, negative = inhibition",[2],inconclusive: 8.74%
same,Potency,[10],inactive
